# The supplement of paper PMC8728848
# This is one part of the list.
# Experiments:
# Experiment in all cases: glycan array binding signal (z-score within array); higher = stronger binding
# Details in all cases: glycan notation: IUPAC condensed, linker removed
# [1] = target: Gal(b1-4)Glc
# Method in brief: (§1)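 Negative Z-scores can be read as non-binding. The Z-score is calculated within each array and then averaged across arrays of one protein sequence at different concentrations or buffers and across linkers. Arrays, 3228 in all, were curated from the Consortium for Functional Glycomics database and kept only where the protein sequence was available.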
# [2] = target: Gal(b1-4)Glc6S
# Method in brief: as §1
# [3] = target: Gal(b1-4)GlcNAc
# Method in brief: as §1
# [4] = target: Gal(b1-4)GlcNAc(a1-6)Gal(b1-4)GlcNAc
# Method in brief: as §1
# [5] = target: Gal(b1-4)GlcNAc(b1-2)Man
# Method in brief: as §1
# [6] = target: Gal(b1-4)GlcNAc(b1-2)Man(a1-3)Man(b1-4)GlcNAc(b1-4)GlcNAc
# Method in brief: as §1
# [7] = target: Gal(b1-4)GlcNAc(b1-2)Man(a1-3)[Gal(b1-4)GlcNAc(b1-2)Man(a1-6)]Man(b1-4)GlcNAc(b1-4)GlcNAc
# Method in brief: as §1
# [8] = target: Gal(b1-4)GlcNAc(b1-2)Man(a1-3)[Gal(b1-4)GlcNAc(b1-2)Man(a1-6)]Man(b1-4)GlcNAc(b1-4)[Fuc(a1-6)]GlcNAc
# Method in brief: as §1
# [9] = target: Gal(b1-4)GlcNAc(b1-2)Man(a1-3)[Gal(b1-4)GlcNAc(b1-2)Man(a1-6)][Gal(b1-4)GlcNAc(b1-4)]Man(b1-4)GlcNAc(b1-4)[Fuc(a1-6)]GlcNAc
# Method in brief: as §1
# [10] = target: Gal(b1-4)GlcNAc(b1-2)Man(a1-3)[Gal(b1-4)GlcNAc(b1-2)Man(a1-6)][GlcNAc(b1-4)]Man(b1-4)GlcNAc(b1-4)[Fuc(a1-6)]GlcNAc
# Method in brief: as §1
# [11] = target: Gal(b1-4)GlcNAc(b1-2)Man(a1-3)[GlcNAc(b1-2)Man(a1-6)]Man(b1-4)GlcNAc(b1-4)GlcNAc
# Method in brief: as §1
# [12] = target: Gal(b1-4)GlcNAc(b1-2)Man(a1-3)[GlcNAc(b1-4)][Gal(b1-4)GlcNAc(b1-2)Man(a1-6)]Man(b1-4)GlcNAc(b1-4)GlcNAc
# Method in brief: as §1
# [13] = target: Gal(b1-4)GlcNAc(b1-2)Man(a1-3)[Man(a1-6)]Man(b1-4)GlcNAc(b1-4)GlcNAc
# Method in brief: as §1
# [14] = target: Gal(b1-4)GlcNAc(b1-2)Man(a1-6)Man(b1-4)GlcNAc(b1-4)GlcNAc
# Method in brief: as §1
# [15] = target: Gal(b1-4)GlcNAc(b1-2)Man(a1-6)[GlcNAc(b1-2)Man(a1-3)]Man(b1-4)GlcNAc(b1-4)GlcNAc
# Method in brief: as §1
# [16] = target: Gal(b1-4)GlcNAc(b1-2)Man(a1-6)[Man(a1-3)]Man(b1-4)GlcNAc(b1-4)GlcNAc
# Method in brief: as §1
# [17] = target: Gal(b1-4)GlcNAc(b1-2)[Gal(b1-4)GlcNAc(b1-4)]Man(a1-3)[Gal(b1-4)GlcNAc(b1-2)Man(a1-6)]Man(b1-4)GlcNAc(b1-4)GlcNAc
# Method in brief: as §1
# [18] = target: Gal(b1-4)GlcNAc(b1-2)[Gal(b1-4)GlcNAc(b1-4)]Man(a1-3)[Gal(b1-4)GlcNAc(b1-2)[Gal(b1-4)GlcNAc(b1-6)]Man(a1-6)]Man(b1-4)GlcNAc(b1-4)GlcNAc
# Method in brief: as §1
# [19] = target: Gal(b1-4)GlcNAc(b1-2)[Gal(b1-4)GlcNAc(b1-4)]Man(a1-3)[GlcNAc(b1-4)][Gal(b1-4)GlcNAc(b1-2)Man(a1-6)]Man(b1-4)GlcNAc(b1-4)GlcNAc
# Method in brief: as §1
# [20] = target: Gal(b1-4)GlcNAc(b1-2)[Gal(b1-4)GlcNAc(b1-4)]Man(a1-3)[GlcNAc(b1-4)][Gal(b1-4)GlcNAc(b1-2)[Gal(b1-4)GlcNAc(b1-6)]Man(a1-6)]Man(b1-4)GlcNAc(b1-4)GlcNAc
# Method in brief: as §1
# [21] = target: Gal(b1-4)GlcNAc(b1-2)[Gal(b1-4)GlcNAc(b1-6)]Man(a1-6)[Gal(b1-4)GlcNAc(b1-2)Man(a1-3)]Man(b1-4)GlcNAc(b1-4)GlcNAc
# Method in brief: as §1
# [22] = target: Gal(b1-4)GlcNAc(b1-2)[Gal(b1-4)GlcNAc(b1-6)]Man(a1-6)[Gal(b1-4)GlcNAc(b1-2)Man(a1-3)]Man(b1-4)GlcNAc(b1-4)[Fuc(a1-6)]GlcNAc
# Method in brief: as §1
# [23] = target: Gal(b1-4)GlcNAc(b1-2)[Gal(b1-4)GlcNAc(b1-6)]Man(a1-6)[GlcNAc(b1-4)][Gal(b1-4)GlcNAc(b1-2)Man(a1-3)]Man(b1-4)GlcNAc(b1-4)GlcNAc
# Method in brief: as §1
# [24] = target: Gal(b1-4)GlcNAc(b1-2)[Gal(b1-4)GlcNAc(b1-6)]Man(a1-6)[GlcNAc(b1-4)][Gal(b1-4)GlcNAc(b1-2)[Gal(b1-4)GlcNAc(b1-4)]Man(a1-3)]Man(b1-4)GlcNAc(b1-4)[Fuc(a1-6)]GlcNAc
# Method in brief: as §1
# [25] = target: Gal(b1-4)GlcNAc(b1-3)Gal(b1-3)GalNAc
# Method in brief: as §1
# [26] = target: Gal(b1-4)GlcNAc(b1-3)Gal(b1-3)GlcNAc
# Method in brief: as §1
# [27] = target: Gal(b1-4)GlcNAc(b1-3)Gal(b1-4)Glc
# Method in brief: as §1
# [28] = target: Gal(b1-4)GlcNAc(b1-3)Gal(b1-4)GlcNAc
# Method in brief: as §1
# [29] = target: Gal(b1-4)GlcNAc(b1-3)Gal(b1-4)GlcNAc(b1-2)Man(a1-3)[Gal(b1-4)GlcNAc(b1-3)Gal(b1-4)GlcNAc(b1-2)Man(a1-6)]Man(b1-4)GlcNAc(b1-4)GlcNAc
# Method in brief: as §1
# [30] = target: Gal(b1-4)GlcNAc(b1-3)Gal(b1-4)GlcNAc(b1-2)Man(a1-3)[Gal(b1-4)GlcNAc(b1-3)Gal(b1-4)GlcNAc(b1-2)Man(a1-6)]Man(b1-4)GlcNAc(b1-4)[Fuc(a1-6)]GlcNAc
# Method in brief: as §1
# [31] = target: Gal(b1-4)GlcNAc(b1-3)Gal(b1-4)GlcNAc(b1-2)[Gal(b1-4)GlcNAc(b1-3)Gal(b1-4)GlcNAc(b1-6)]Man(a1-6)[Gal(b1-4)GlcNAc(b1-3)Gal(b1-4)GlcNAc(b1-2)Man(a1-3)]Man(b1-4)GlcNAc(b1-4)GlcNAc
# Method in brief: as §1
# [32] = target: Gal(b1-4)GlcNAc(b1-3)Gal(b1-4)GlcNAc(b1-2)[Gal(b1-4)GlcNAc(b1-3)Gal(b1-4)GlcNAc(b1-6)]Man(a1-6)[Gal(b1-4)GlcNAc(b1-3)Gal(b1-4)GlcNAc(b1-2)Man(a1-3)]Man(b1-4)GlcNAc(b1-4)[Fuc(a1-6)]GlcNAc
# Method in brief: as §1
# [33] = target: Gal(b1-4)GlcNAc(b1-3)Gal(b1-4)GlcNAc(b1-3)Gal(b1-4)GlcNAc
# Method in brief: as §1
# [34] = target: Gal(b1-4)GlcNAc(b1-3)Gal(b1-4)GlcNAc(b1-3)Gal(b1-4)GlcNAc(b1-2)Man(a1-3)[Gal(b1-4)GlcNAc(b1-3)Gal(b1-4)GlcNAc(b1-3)Gal(b1-4)GlcNAc(b1-2)Man(a1-6)]Man(b1-4)GlcNAc(b1-4)GlcNAc
# Method in brief: as §1
# [35] = target: Gal(b1-4)GlcNAc(b1-3)Gal(b1-4)GlcNAc(b1-3)Gal(b1-4)GlcNAc(b1-2)Man(a1-3)[Gal(b1-4)GlcNAc(b1-3)Gal(b1-4)GlcNAc(b1-3)Gal(b1-4)GlcNAc(b1-2)Man(a1-6)]Man(b1-4)GlcNAc(b1-4)[Fuc(a1-6)]GlcNAc
# Method in brief: as §1
# [36] = target: Gal(b1-4)GlcNAc(b1-3)Gal(b1-4)GlcNAc(b1-3)Gal(b1-4)GlcNAc(b1-2)[Gal(b1-4)GlcNAc(b1-3)Gal(b1-4)GlcNAc(b1-3)Gal(b1-4)GlcNAc(b1-6)]Man(a1-6)[Gal(b1-4)GlcNAc(b1-3)Gal(b1-4)GlcNAc(b1-3)Gal(b1-4)GlcNAc(b1-2)Man(a1-3)]Man(b1-4)GlcNAc(b1-4)[Fuc(a1-6)]GlcNAc
# Method in brief: as §1
# [37] = target: Gal(b1-4)GlcNAc(b1-3)Gal(b1-4)GlcNAc(b1-3)Gal(b1-4)GlcNAc(b1-3)Gal(b1-4)GlcNAc(b1-2)Man(a1-3)[Gal(b1-4)GlcNAc(b1-3)Gal(b1-4)GlcNAc(b1-3)Gal(b1-4)GlcNAc(b1-3)Gal(b1-4)GlcNAc(b1-2)Man(a1-6)]Man(b1-4)GlcNAc(b1-4)GlcNAc
# Method in brief: as §1
binder,measurement,setting,value
Clec18C (Homo sapiens) (protein) MLHPETSPGRGHLLAVLLALLGTAWAEVWPPQLQEQAPMAGALNRKESFLLLSLHNRLRSWVQPPAADMRRLDWSDSLAQLAQARAALCGTPTPSLASGLWRTLQVGWNMQLLPAGLVSFVEVVSLWFAEGQRYSHAAGECARNATCTHYTQLVWATSSQLGCGRHLCSAGQAAIEAFVCAYSPRGNWEVNGKTIVPYKKGAWCSLCTASVSGCFKAWDHAGGLCEVPRNPCRMSCQNHGRLNISTCHCHCPPGYTGRYCQVRCSLQCVHGRLREEECSCVCDIGYGGAQCATKVHFPFHTCDLRIDGDCFMVSSEADTYYRARMKCQRKGGVLAQIKSQKVQDILAFYLGRLETTNEVIDSDFETRNFWIGLTYKTAKDSFRWATGEHQAFTSFAFGQPDNHGFGNCVELQASAAFNWNNQRCKTRNRYICQFAQEHISRWGPGS,glycan array binding signal (z-score),[1],0.045
same,glycan array binding signal (z-score),[2],0.371
same,glycan array binding signal (z-score),[3],0.293
same,glycan array binding signal (z-score),[4],-0.238
same,glycan array binding signal (z-score),[5],-0.391
same,glycan array binding signal (z-score),[6],1.28
same,glycan array binding signal (z-score),[7],5.03
same,glycan array binding signal (z-score),[8],0.406
same,glycan array binding signal (z-score),[9],-0.546
same,glycan array binding signal (z-score),[10],1.07
same,glycan array binding signal (z-score),[11],1.5
same,glycan array binding signal (z-score),[12],1.96
same,glycan array binding signal (z-score),[13],0.188
same,glycan array binding signal (z-score),[14],-0.478
same,glycan array binding signal (z-score),[15],-0.411
same,glycan array binding signal (z-score),[16],0.267
same,glycan array binding signal (z-score),[17],0.041
same,glycan array binding signal (z-score),[18],1.38
same,glycan array binding signal (z-score),[19],2.58
same,glycan array binding signal (z-score),[20],1.22
same,glycan array binding signal (z-score),[21],0.225
same,glycan array binding signal (z-score),[22],1.12
same,glycan array binding signal (z-score),[23],-0.243
same,glycan array binding signal (z-score),[24],-0.339
same,glycan array binding signal (z-score),[25],5.75
same,glycan array binding signal (z-score),[26],-0.045
same,glycan array binding signal (z-score),[27],0.555
same,glycan array binding signal (z-score),[28],0.778
same,glycan array binding signal (z-score),[29],0.543
same,glycan array binding signal (z-score),[30],0.329
same,glycan array binding signal (z-score),[31],1.38
same,glycan array binding signal (z-score),[32],-0.184
same,glycan array binding signal (z-score),[33],0.455
same,glycan array binding signal (z-score),[34],1.85
same,glycan array binding signal (z-score),[35],-0.242
same,glycan array binding signal (z-score),[36],-0.191
same,glycan array binding signal (z-score),[37],1.91
